# Data reported in PubChem BioAssay AID652104 (National Center for Advancing Translational Sciences (NCATS), 2013).
# The whole screen tested about 410,000 compounds, of which about 7,200 (1.8%) were called active. This list was built around the results that the source calls inconclusive (neither active nor inactive); the mix of calls is not that of the screen. The call rests on the fitted dose curve; in most records, active means well fitted activation curve with a large enough effect; inconclusive means small, poorly fitted or top-dose-only effect, or another doubt; inactive means no such curve, though single readings can be large or run the other way. Potencies of inconclusive entries are left out as doubtful fits.
# Assay: qHTS of TDP-43 Inhibitors; further: nearly all actives have a fitted effect of over 50% in size; on growth rescue (activation): % of control where 0% means no effect
# Settings: TDP-43 expressing yeast growth rescue, BacTiter-Glo, 24 h; growth rescue (activation): at 46.1 µM (top of the series) unless noted
# In short: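 Yeast expressing TDP-43 (pregrown in raffinose, seeded at OD600=0.02 in galactose medium) exposed to compounds 24 hr at 30 deg C. Growth read by BacTiter-Glo luminescence; rescue of toxicity appears as increased signal.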
# Potency means the concentration at half of the fitted maximal effect; tags describe the fitted curve by direction and shape.
Structure (SMILES),Potency,growth rescue (activation)
COc1ccc(N2CCOCC2)c(NC(=O)COc2cccc(C)c2C)c1,"inconclusive [activator, single point]",–
COc1cc(NS(=O)(=O)c2ccc(C)c(C)c2)c(OC)cc1Cl,"inconclusive [activator, single point]",–
CC1(C)C(=O)OC(C(=O)c2ccccc2)C2(CCCCC2)C1=O (centres undefined),"inconclusive [activator, partial curve]",–
CC1=C(C(=O)N2CCOCC2)CC(CC(=O)NCCCCc2ccccc2)C(=O)N1CCC1=CCCCC1 (centres undefined),"inconclusive [activator, partial curve]",–
CCN(CC(=O)Nc1c(F)cccc1F)C(=O)c1ccccn1,–,inactive: -5.72%
CC1=C(C(=O)Nc2cccnc2)C(c2ccc(F)cc2)n2nc(SCc3ccccc3)nc2N1 (centres undefined),–,inactive: 12.8%
CCCNC(=O)Cn1nc(C)c2c(C)n(-c3ccccc3)nc2c1=O,–,inactive: -5.47%
CCc1ccc(Nc2ccc(C(=O)O)cc2[N+](=O)[O-])cc1,"inconclusive [activator, full curve]",–
c1ccc(Cn2cc(-c3cccnc3)cn2)cc1,"inconclusive [activator, single point]",–
CC(C)C1CC(CCN)(c2ccccc2)CCO1 (centres undefined),–,inactive: -8.45%
COc1ccc(C(O)c2nc(-c3cc(F)cc(Cl)c3)cs2)cc1 (centres undefined),"inconclusive [activator, partial curve]",–
O=C(O)c1ccc2c(c1)nnn2C1CCCCC1,"inconclusive [activator, single point]",–
O=C1C2C3C=CC(CO)(O3)C2C(=O)N1c1ccccc1-c1ccccc1 (centres undefined),–,inconclusive: -94% [activator]
O=S1(=O)CC=C(CSC(=S)NC2CCS(=O)(=O)C2)C1 (centres undefined),"inconclusive [activator, single point]",–
CCCCc1ccc(NC(=O)C2CCCC2)cc1,"inconclusive [activator, single point]",–
CCOC(=O)c1[nH]c2ccc(OC)cc2c1NC(=O)CCN1CCC(C)CC1,–,inactive: 10.1%
Cc1nnc(SCC(=O)NNC(=O)CC#N)[nH]c1=O,"inconclusive [activator, single point]",–
CCOC(=O)c1nc(NNC(=O)c2ccc([N+](=O)[O-])cc2)sc1C,"inconclusive [activator, single point]",–
COc1ccc(S(=O)(=O)N2CCN(C(=O)CCSc3ccccc3)CC2)cc1,"inconclusive [activator, single point]",–
COc1cc2ccc(C(=O)O)cc2cc1OC,"inconclusive [activator, single point]",–
CC1(C(=O)Nc2cccc3cccnc23)CCN1Cc1csc2ccccc12 (centres undefined),"inconclusive [activator, single point]",–
CCCC(=O)N1CCN(c2nc3ccc(CC)cc3s2)CC1,"inconclusive [activator, partial curve]",–
CCOc1ccc(/C=N/NC(=O)c2nnn(-c3nonc3N)c2-c2ccc(OCC)cc2)cc1,–,inactive: -1.53%

Structure (SMILES),Potency,growth rescue (activation)
O=C(O)C1CC(=O)N(c2ccc(OCc3ccc(Cl)cc3Cl)cc2)C1 (centres undefined),–,inactive: -11.8%
c1ccc(-c2csc(NC3CCCCC3)n2)cc1,"inconclusive [activator, single point]",–
O=C(NNC(=O)C1CCCO1)c1ccccc1Cl (centres undefined),"inconclusive [activator, single point]",–
Cc1onc(-c2ccccc2)c1C(=O)Oc1cccnc1,"inconclusive [activator, single point]",–
N#Cc1ccc(-c2nc3c4ccccc4ccn3c2Cc2ccccc2C(F)(F)F)cc1,"inconclusive [activator, partial curve]",–
Cc1ccc(OCc2ccc(C(=O)N3CCCC3)o2)c([N+](=O)[O-])c1,"inconclusive [activator, single point]",–
Clc1cccc(OCc2nnc(-c3ccccc3Br)o2)c1,active: 17.8 µM,–
CCCCn1nc(NC(=O)c2cccs2)c2cc3ccccc3nc21,"inconclusive [activator, single point]",–
COc1ccc([C@@H]2[C@@H](C(=O)C(C)(C)C)N3N=Cc4ccccc4[C@@H]3C23C(=O)OC(C)(C)OC3=O)cc1OC,"inconclusive [activator, single point]",–
COc1cc(N2C(=O)C=CC2=O)ccc1N1C(=O)C=CC1=O,active: 20 µM,–
Cc1ccc(SC[C@H](C)CN2CCC(NC(=O)OCc3ccccc3)CCC2=O)cc1 (some centres undefined),"inconclusive [activator, single point]",–
COc1ccc(CN(C)C(=O)c2cccc(S(=O)(=O)N3CCc4ccccc43)c2)c(OC)c1,"inconclusive [activator, single point]",–
CC(=O)N1CCCc2cc(S(=O)(=O)N3CCN(c4ccc(F)cc4)CC3)ccc21,–,inactive: 12.2%
CCC(=O)OCCCNc1nc(-c2ccc(Cl)cc2)nc2ccccc12,"inconclusive [activator, single point]",–
Cc1ccc(C)c(C(=O)COC(=O)Cn2c(C)csc2=O)c1,"inconclusive [activator, partial curve]",–
COc1ccc(Nc2ncnc3sc(C)cc23)c(OC)c1,"inconclusive [activator, partial curve]",–
CC(C)n1nnnc1C1c2ccccc2C(=O)N1CCc1ccccc1F (centres undefined),"inconclusive [activator, partial curve]",–
Cc1ccc(NCCCn2cnc(C(=O)Nc3ccc(C)c(C)c3)n2)cc1C,"inconclusive [activator, full curve, poor fit]",–
COCc1cc(N2CCCCC2)nc(-c2ccccc2)n1,"inconclusive [activator, single point]",–
COc1ccc(C(=O)NC2CCCc3ccccc32)cc1Br (centres undefined),active: 14.1 µM,–
CCOC(=O)C1(Cc2ccccc2)CCN(Cc2cccn2-c2nccs2)CC1,–,inactive: -27.3%
CC1CN(C(=O)N2c3ccccc3Sc3ccccc32)C(C)CC1=O (centres undefined),"inconclusive [activator, single point]",–
COc1ccccc1C(=O)NC(=O)Nc1c(C)cc(C)cc1C,"inconclusive [activator, partial curve]",–

Structure (SMILES),Potency,growth rescue (activation)
Cn1c2ccccc2c2cc(/C=N/NC(=O)c3cc(O)ccc3O)ccc21,"inconclusive [activator, partial curve]",–
O=C(Nc1cccc(N=Cc2cc(Br)cc(Br)c2O)c1)c1ccco1,"inconclusive [activator, single point]",–
COc1cc(/C=N/NC(=O)c2ccccc2O)ccc1OCC(=O)Nc1ccccc1,"inconclusive [activator, partial curve]",–
Cc1nc2c(c(C)nn2-c2ccccc2)c(C)c1C,"inconclusive [activator, partial curve]",–
COc1ccc(S(=O)(=O)N(C)Cc2nc(-c3cccc(C)c3)no2)cc1,"inconclusive [activator, partial curve]",–
Cc1cc(/C=C\c2ccc3cc(N(C)C)ccc3[n+]2C)c(C)n1-c1ccccc1,–,inconclusive: -64.4% [activator]
COc1ccc(C(=O)Nc2cc(S(=O)(=O)N3CCCC3)ccc2Cl)cc1,"inconclusive [activator, partial curve, poor fit]",–
CCn1c(=O)c(-c2ccccc2)c(O)c2ccccc21,"inconclusive [activator, partial curve]",–
Cc1cc(C(=O)OCC(=O)N2CCN(C(=O)c3ccco3)CC2)c(C)n1-c1ccc(F)cc1,–,inactive: -5.33%
O=S(=O)(NCCSc1nc2ccccc2o1)c1ccccc1,"inconclusive [activator, partial curve]",–
O=c1c2ccccc2ncn1Cc1cccc2ccccc12,active: 11.2 µM,–
COc1cccc(NC(=O)CCC(=O)N2CC(C)Oc3ccc(C)cc32)c1 (centres undefined),"inconclusive [activator, single point]",–
Cc1ccc(NS(=O)(=O)c2cccc3nsnc23)cc1C,"inconclusive [activator, partial curve]",–
CCS(=O)(=O)N1CC(=O)N(c2cccc(C)c2C)C(C)(C(=O)NC2CCCCC2)C1 (centres undefined),–,inactive: 1.1%
COCC(=O)N1CCCC(C(=O)c2ccc(-c3ccccc3)cc2)C1 (centres undefined),"inconclusive [activator, partial curve]",–
Cc1c(NC(=O)c2sc3c([N+](=O)[O-])cccc3c2Cl)cccc1-c1nc2ccccc2o1,–,inactive: 18.7%
Cc1ccc(-c2c3c(=O)n(C)c(=O)n(C)c3c3c(C(F)(F)F)nc4ccccc4n23)cc1,"inconclusive [activator, partial curve]",–
COc1ccccc1N1CCN(C(=O)c2oc3ccc(F)cc3c2C)CC1,"inconclusive [activator, single point]",–
CCCCOc1ccc(C(=O)OCC(=O)N2CCCCCC2)cc1,"inconclusive [activator, single point]",–
COc1ccccc1N1CCN(C(=O)c2oc3ccc(Br)cc3c2C)CC1,active: 17.8 µM,–
CCOC(=O)c1ccc(S(=O)(=O)n2c(=O)oc3ccccc32)cc1,–,inactive: 24.4%
Cc1ccc(S(=O)(=O)N/N=C/c2cc([N+](=O)[O-])ccc2O)cc1[N+](=O)[O-],"inconclusive [activator, full curve]",–
Cc1ccc(F)cc1-c1nc(NCC2CC2)nc2ccsc12,active: 20 µM,–
